# Reference: the supplement of paper PMC11417369
# ± gives the standard deviation of the averaged measurements. The list shows a part of the results.
# Test system: PfAP2-I AP2 domain 3 (GST-tagged)
# Assay: gcPBM binding intensity (ln(normalized median fluorescence intensity)); higher = stronger DNA binding
# Outline: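 Binding intensity is defined as the maximum Masliner-normalised natural-log median intensity across replicate spots for either probe orientation. It was measured on an Agilent 4 × 180k array of primer-extended double-stranded 36-bp intergenic genomic probes and negative controls, to which GST-tagged P. falciparum DNA-binding domains made in E. coli were applied for 1 h in 1× PBS with 1% milk, 0.2 mg/ml BSA, 0.5% salmon testes DNA and 0.03% Triton X-100. Detection was by Alexa488 anti-GST antibody and scanning at 488 nm.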
row,Sequence,gcPBM binding intensity (ln)
1,ATATTACGCACAAAAAAAAAAAAAAAAAAAAAAAAA [CACACA_negctrl_site941],10.2 ± 0.68
2,ATGATGTGCTTTAAAAGTACTTAAGTTATATTCTTT [XGTACX_site7127],9.61 ± 0.3
3,AAAATTAAAATTTTCACACAGATATATTTACAATTT [CACACA_site5692],7.33 ± 0.61
4,TTCGTAACTGATTCAACACACAAAAGGGGGAAAATT [CACACA_site1754],8.77 ± 0.057
5,AAAAAGAAGAATAATACACACAAATTACTTTATATA [CACACA_site6984],7.39 ± 0.6
6,TAAATTAAAAAAAATACACACACACCGACACATATA [CACACA_site9084],8.265 ± 0.078
7,TATGTTATATAATATTGTACACAAAATGGTTTCTAT [XGTACX_site7686],7.74 ± 0.5
8,AATTACAAATATTCATGTACATATTTATAAATACAT [XGTACX_site5430],7.87 ± 0.52
9,ATATATATATATATGTGTACATATATTAAGATATAT [XGTACX_site1065],9.29 ± 0.42
10,ATATTATAGAAATATACACACATTGTTTTATAGCAT [CACACA_site7177],7.75 ± 0.54
11,GTTTTGTACATATTCTCACACATATAAAAATACCCA [CACACA_site4446],8.41 ± 0.27
12,AAGCATTTAATGTTTTATATAACATGTATTTTTTAT [CACACA_negctrl_site673],7.68 ± 0.61
13,TTCATAATAAAAAGGTGTACATATATATATATATAT [XGTACX_site2829],9.71 ± 0.2
14,TTTATATGTATACAAACATATAAATATAAATGTATT [TGCATGCA_negctrl_site346],7.29 ± 0.48
15,TATATATACATATACACACACACACCGATATATATA [CACACA_site8706],8.2 ± 0.73
16,TGTTCTATGATTTGTACACACTTTTTTTTAAAATGC [CACACA_site5558],8.13 ± 0.39
17,TGTTAAAAGGTTAAATTAAAATAACCTCCGGAAATT [GTGCAC_negctrl_site236],7.41 ± 0.69
18,GAATGCATGTAAATATGTACATATATTTAAAAATTT [XGTACX_site6032],8.03 ± 0.54
19,AAAAAAATTTCACATTGTACTTTAATAATATACTAC [XGTACX_site7264],7.77 ± 0.42
20,ATAAATATATATTTACGTACATATTATATATATATA [XGTACX_site6172],8.77 ± 0.31
21,ACATATAAATTGTGTACACATATATATATATTTTTT [CACACA_site5946],8.36 ± 0.29
22,ATAAATAATAAAAAATGTACACATATAAATATAAAG [XGTACX_site727],7.89 ± 0.47

row,Sequence,gcPBM binding intensity (ln)
1,ATGATGAAAATAGAAATACACACTAAAAAATAAAAT [CACACA_site1136],7.73 ± 0.78
2,AAAACATGTTCAACATGTACACAACAGGATGAATAT [XGTACX_site506],8.02 ± 0.57
3,CTTACTTACTTACTCACACACATATACAAAGAAAAA [CACACA_site3347],8.3 ± 0.47
4,AAATATATGTTATATGTGCACTTTTTTTTTTTTTTT [GTGCAC_site9667],10.21 ± 0.035
5,TTTTACTAAATATATACACACATTATACATATATAT [CACACA_site9081],7.88 ± 0.68
6,TAAAATGAATATAGGTGTACTTAAAAAAAAGTAAAA [XGTACX_site4613],8.12 ± 0.35
7,TAAAAGAAATAATATACACACATATATAAAAATAAA [CACACA_site1329],7.5 ± 0.54
8,TAAATTCTTTATAATCGTACATAAATAGAAAAATAA [XGTACX_site601],7.75 ± 0.47
9,TATCGAGCCATTTTTACATGCAATTATACATAATTT [TGCATGCA_site987],7.76 ± 0.59
10,TTCAAATAATTTAAATGTACGTTGCTTTATTAAAAG [XGTACX_site3674],7.82 ± 0.47
11,CATGTATACTATAATACACACTATAAAATATACACC [CACACA_site7121],8.18 ± 0.45
12,TAAAAAATTATAAAATGTACATAAAAAAAAAAAAAA [XGTACX_site3376],8.12 ± 0.45
13,AAAGCACGCAAGAATACACACAAATATTATAAAAAA [CACACA_site6206],8.07 ± 0.69
14,ATCCCAGTAATATATAGTACATAACTATAAGAGAAT [XGTACX_site6909],7.77 ± 0.57
15,AGGAAAACAAAAGATGCATGCTAATTTTCCTCGCGT [TGCATGCA_site627],7.42 ± 0.95
16,CTGAAGAAACTACAACGTACAAAATATGTATATATT [XGTACX_site3779],7.75 ± 0.66
17,AAAATTAATAAATGAGAAAAAAGGATGAATAATGAG [CACACA_negctrl_site1614],8.2 ± 0.57
18,AGAAAAAAAATGTATACACACAAATATAAAGAAGGA [CACACA_site3806],8.07 ± 0.67
19,TTTATTAATTAAACCATACACACATAATTTTTTTAT [CACACA_site842],7.77 ± 0.45
20,AAACGTGCGTATATGTGTACGCATATATATATATAT [XGTACX_site5252],10.3 ± 0.34
21,TATGATGAGATAACAAAAGTTGTACTTTTTTTTTTT [CACACA_negctrl_site1172],7.86 ± 0.2
22,CATATATACTCATACACACACACACCGACACAGACA [CACACA_site5026],8.12 ± 0.29

row,Sequence,gcPBM binding intensity (ln)
1,ATGATATGGATAAATACACACAATATAATAATGTCT [CACACA_site1433],7.79 ± 0.69
2,ATATTTTTTAGGGTCACACATACTTATTATATAAAT [CACACA_site4926],8.14 ± 0.58
3,AATATTTAACACCTTATACACACTTTCTTCCTTTTT [CACACA_site785],7.96 ± 0.86
4,AAAATGCATTTGATGTGTACGCATTATAAAGAACAA [XGTACX_site4203],8.41 ± 0.45
5,CACAAACAAAGACACACACACACACGCACAAAAATG [CACACA_site7193],8.36 ± 0.49
6,CAAATAGCTAGCTGTGCACACAAACATATTTTCCAA [CACACA_site879],9.66 ± 0.23
7,ATGGAAATAAAAAAAAAAAAAAAAAAAAATATATAT [GTGCAC_negctrl_site67],8.04 ± 0.87
8,TAGCCCACATTTAATGGTACAGTGAGTATATATATG [XGTACX_site8044],7.81 ± 0.41
9,TAATATATTTATAGAGCATGCAACGTAATATTATTA [TGCATGCA_site863],7.86 ± 0.59
10,TACATAAAATACCATGCATGCTAGTAAAAAAAAAAA [TGCATGCA_site650],7.87 ± 0.81
11,AAATGACGAAATAAAATCATAAATTAAAATAAATAA [CACACA_negctrl_site655],7.33 ± 0.51
12,ATAGCATTTCACAAATGTACATAAAAAAATAAAAAT [XGTACX_site402],8.09 ± 0.52
13,TAAAACAAAATGGTAACACACACATATATATATATA [CACACA_site8590],9.26 ± 0.49
14,AAATGGAAATTAATATGTACATATTTATAAGTATGA [XGTACX_site1774],7.84 ± 0.5
15,AATATATAAATATATATAAATAAATATATATATAAA [CACACA_negctrl_site49],6.99 ± 0.28
16,TCTTTTCTTTTGTGTGTGCACATATAAGCATGAAAC [GTGCAC_site9910],10 ± 0.22
17,ATGTTTCTATAGATTTGTACATATTTCATATGAATA [XGTACX_site1053],7.92 ± 0.54
18,TTATTTTTTGTATGAACACACAACTTAATTATGATG [CACACA_site2448],7.82 ± 0.51
19,TTTTACAAATATTTCTGTACACATTCTCATATAATT [XGTACX_site1974],8.13 ± 0.72
20,TTTTTTAATTAATTACCTTTGAATGTGTATTAGGAC [GTGCAC_negctrl_site651],7.95 ± 0.29
21,GAAAAGTATAAAAAACGTACAAGTTTTATTTTCACA [XGTACX_site4604],7.59 ± 0.55
22,CCCCTATAAATAGGGTGTACTAATAAATATTTTTAA [XGTACX_site1244],8.96 ± 0.092

row,Sequence,gcPBM binding intensity (ln)
1,ACGGGCGACACATAAGTGCGCAAAAAAAAAAAAATA [GTGCAC_site9688],9.39 ± 0.071
2,TAAAATAAAAAGTTTACACACATATATAACTTTAAT [CACACA_site6456],7.51 ± 0.43
3,AAAATACAGAAACACACACACACACCCATATATATA [CACACA_site3559],8.34 ± 0.78
4,TTTTATAAAACATGTAGTACATGAAAAAAAAAATTT [XGTACX_site1626],8.04 ± 0.49
5,GTATTCATTCCTTGAGTGCAATTGCAATAAATAAAA,10.2 ± 0.13
6,CATATTAAGATGTGTACACATTTTTATTTTTTTTTT [CACACA_site4425],7.8 ± 0.22
7,ATGAATTTTTCTCTACAAAAGGATATAATAAAAATA [XGTACX_negctrl_site461],7.53 ± 0.45
8,TTTTCTAATTAATATTGTACATAAATGTATATATAT [XGTACX_site4749],8.04 ± 0.54
9,TAGTGTGCCAAATTAGCACACACATATATACATGAA [CACACA_site8910],9.04 ± 0.17
10,GTTTTTATCATATCATGTACGTATTTTATTTTTTTT [XGTACX_site8643],8.21 ± 0.69
11,CTTCTGGACAGGAATGCACACATTTTTTTTTCTTTT [CACACA_site1807],8.57 ± 0.57
12,ATCAAAGATAAATTTACACACATATAAATATAAATA [CACACA_site7409],7.69 ± 0.28
13,TATATATATATATATTGTACAAAGATTAATATATAA [XGTACX_site8433],9.28 ± 0.46
14,ACTTAATTTTTTTATTGTACATGTAAATGAGGGAAA [XGTACX_site6305],8.25 ± 0.26
15,TATTTTAATAAGAATAAATGAAATGAAATGAAATAT [CACACA_negctrl_site823],7.93 ± 0.64
16,ACATCCTATAAATAGAGTACGTAAATTATAATACAC [XGTACX_site5338],8.3 ± 0.2
17,TAATATATTTTTAACATGCACTGTATTTTAATATAT,8.76 ± 0.35
18,TAATTAAAGTTATCTACACACCTTTATAGATATATA [CACACA_site7778],7.53 ± 0.46
19,TATAAAACAAATATATGTACATATCATAGTATAATA [XGTACX_site2965],7.68 ± 0.47
20,TCTGGATTGGATTACAAGAAAATAAAATATAAAATA [CACACA_negctrl_site122],7.59 ± 0.54
21,TATACAAATATATATGCACACACATATATGTATATG [CACACA_site9007],8.96 ± 0.14
22,AATATAATATACATATGTACATATATATATATATAT [XGTACX_site8218],9.2 ± 0.64
